Measurements reported in the supplement of paper PMC4604168 (melanoma cell lines).
The list shows a part of the results. Most values come without repeats; read them as rough.

system: WM451Lu; experiment: cell count relative to DMSO control; melanoma cells; higher = more viable cells; details: library dose: standard library concentration; 72 h
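Further: cells treated in 1,536-well plates, then fixed and DAPI-stained, with nuclei counted from automated high-throughput microscope images.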

Compound | cell count [%]
Cn1cnc2c(F)c(Nc3ccc(Br)cc3Cl)c(C(=O)NOCCO)cc21 [selumetinib] + Cn1cc(/C=C2\C(=O)Nc3cccnc32)c2ccccc21 [GW441756] (first compound 0.075 µM, partner dose 2 µM) | 50.2
Cn1cnc2c(F)c(Nc3ccc(Br)cc3Cl)c(C(=O)NOCCO)cc21 [selumetinib] + COc1ccc(-c2ccc3c(N4CCOCC4)nc(N4C[C@@H](C)O[C@@H](C)C4)nc3n2)cc1CO [KU0063794] (first compound 0.075 µM, partner dose 0.1 µM) | 70.6
C[C@]1(O)C[C@@H](c2nc(-c3ccc4ccc(-c5ccccc5)nc4c3)c3c(N)nccn32)C1 + CCc1ccc(CCOc2ccc(CC3SC(=O)NC3=O)cc2)nc1 [pioglitazone] (first compound 2 µM, partner dose 10 µM) | 89
C[C@]1(O)C[C@@H](c2nc(-c3ccc4ccc(-c5ccccc5)nc4c3)c3c(N)nccn32)C1 + O=c1cc(-c2cccc3c2Sc2ccccc2S3)oc(N2CCOCC2)c1 [KU55933] (first compound 2 µM, partner dose 5 µM) | 107
Cn1cnc2c(F)c(Nc3ccc(Br)cc3Cl)c(C(=O)NOCCO)cc21 [selumetinib] + CCCCCCCCCCCC1=C(O)C(=O)C=C(O)C1=O [Embelin] (first compound 0.075 µM, partner dose 6 µM) | 70.5
Cn1cnc2c(F)c(Nc3ccc(Br)cc3Cl)c(C(=O)NOCCO)cc21 [selumetinib] + O=C(Nc1ccccc1)c1cc([N+](=O)[O-])ccc1Cl [GW9662] (first compound 0.075 µM, partner dose 10 µM) | 60
COc1cc([C@@H]2c3cc4c(cc3[C@@H](O[C@@H]3O[C@@H]5CO[C@@H](C)O[C@H]5[C@H](O)[C@H]3O)[C@H]3COC(=O)[C@H]23)OCO4)cc(OC)c1O [etoposide] + Oc1nc(-c2ccc(C(F)(F)F)cc2)nc2c1CSCC2 [XAV939] (first compound 0.1 µM, partner dose 10 µM) | 90.1
CCN(CC)CCNC(=O)c1c(C)[nH]c(/C=C2\C(=O)Nc3ccc(F)cc32)c1C [sunitinib] + CC(C)CCN1c2nc(Nc3cc(F)c(O)c(F)c3)ncc2N(C)C(=O)C1C [BID1870] (first compound 2 µM, partner dose 1 µM) | 74.2
Cn1cnc2c(F)c(Nc3ccc(Br)cc3Cl)c(C(=O)NOCCO)cc21 [selumetinib] + CCN(CC)CCCCNc1ncc2cc(-c3cc(OC)cc(OC)c3)c(NC(=O)NC(C)(C)C)nc2n1 [PD173074] (first compound 0.075 µM, partner dose 0.5 µM) | 56.7
CCN(CC)CCNC(=O)c1c(C)[nH]c(/C=C2\C(=O)Nc3ccc(F)cc32)c1C [sunitinib] + O=c1cc(-c2cccc3c2Sc2ccccc2S3)oc(N2CCOCC2)c1 [KU55933] (first compound 2 µM, partner dose 5 µM) | 70.9
Cn1cnc2c(F)c(Nc3ccc(Br)cc3Cl)c(C(=O)NOCCO)cc21 [selumetinib] + COc1cc2ncnc(Nc3ccc(Oc4ccccc4)cc3)c2cc1OC [SrcI1] (first compound 0.075 µM, partner dose 10 µM) | 46.2
Cn1cnc2c(F)c(Nc3ccc(Br)cc3Cl)c(C(=O)NOCCO)cc21 [selumetinib] + N#Cc1c(O)c2c(-c3ccc(-c4ccccc4O)cc3)csc2[nH]c1=O [A769662] (first compound 0.075 µM, partner dose 10 µM) | 68.9
COc1cc([C@@H]2c3cc4c(cc3[C@@H](O[C@@H]3O[C@@H]5CO[C@@H](C)O[C@H]5[C@H](O)[C@H]3O)[C@H]3COC(=O)[C@H]23)OCO4)cc(OC)c1O [etoposide] + COc1ccc(COc2ccc(Cc3cnc(N)nc3N)cc2OC)cc1 [GW2580] (first compound 0.1 µM, partner dose 5 µM) | 94.2
COc1cc([C@@H]2c3cc4c(cc3[C@@H](O[C@@H]3O[C@@H]5CO[C@@H](C)O[C@H]5[C@H](O)[C@H]3O)[C@H]3COC(=O)[C@H]23)OCO4)cc(OC)c1O [etoposide] + Oc1cc(-c2nc(-c3ccccc3)[nH]c2-c2ccncc2)ccc1Cl [L779450] (first compound 0.1 µM, partner dose 1 µM) | 53.8
Cn1cnc2c(F)c(Nc3ccc(Br)cc3Cl)c(C(=O)NOCCO)cc21 [selumetinib] + O=S(=O)(c1ccccc1)N(CC(F)(F)F)c1ccc(C(O)(C(F)(F)F)C(F)(F)F)cc1 [T0901317] (first compound 0.075 µM, partner dose 7 µM) | 60.4
C[C@]1(O)C[C@@H](c2nc(-c3ccc4ccc(-c5ccccc5)nc4c3)c3c(N)nccn32)C1 + COc1ccc2c(c1)CCC1C2CCC2(C)C(NCCCCCCN3C(=O)C=CC3=O)CCC12 [U73122] (first compound 2 µM, partner dose 2 µM) | 89.3
CCN(CC)CCNC(=O)c1c(C)[nH]c(/C=C2\C(=O)Nc3ccc(F)cc32)c1C [sunitinib] + COC(=O)c1sccc1S(=O)(=O)Nc1ccc(Nc2ccccc2)cc1OC [GSK0660] (first compound 2 µM, partner dose 5 µM) | 72.5
COc1cc([C@@H]2c3cc4c(cc3[C@@H](O[C@@H]3O[C@@H]5CO[C@@H](C)O[C@H]5[C@H](O)[C@H]3O)[C@H]3COC(=O)[C@H]23)OCO4)cc(OC)c1O [etoposide] + Cn1cc(/C=C2\C(=O)Nc3cccnc32)c2ccccc21 [GW441756] (first compound 0.1 µM, partner dose 2 µM) | 121
COc1cc([C@@H]2c3cc4c(cc3[C@@H](O[C@@H]3O[C@@H]5CO[C@@H](C)O[C@H]5[C@H](O)[C@H]3O)[C@H]3COC(=O)[C@H]23)OCO4)cc(OC)c1O [etoposide] + CC(C)CCN1c2nc(Nc3cc(F)c(O)c(F)c3)ncc2N(C)C(=O)C1C [BID1870] (first compound 0.1 µM, partner dose 1 µM) | 100
COc1cc([C@@H]2c3cc4c(cc3[C@@H](O[C@@H]3O[C@@H]5CO[C@@H](C)O[C@H]5[C@H](O)[C@H]3O)[C@H]3COC(=O)[C@H]23)OCO4)cc(OC)c1O [etoposide] + CCN(CC)CCCCNc1ncc2cc(-c3cc(OC)cc(OC)c3)c(NC(=O)NC(C)(C)C)nc2n1 [PD173074] (first compound 0.1 µM, partner dose 0.5 µM) | 83.8
C[C@]1(O)C[C@@H](c2nc(-c3ccc4ccc(-c5ccccc5)nc4c3)c3c(N)nccn32)C1 + O=C(O)C(=O)Nc1sc2c(c1C(=O)O)CCNC2 [TCS401] (first compound 2 µM, partner dose 8.33333 µM) | 91.4
Cn1cnc2c(F)c(Nc3ccc(Br)cc3Cl)c(C(=O)NOCCO)cc21 [selumetinib] + Oc1cc(-c2nc(-c3ccccc3)[nH]c2-c2ccncc2)ccc1Cl [L779450] (first compound 0.075 µM, partner dose 1 µM) | 39.1
C[C@]1(O)C[C@@H](c2nc(-c3ccc4ccc(-c5ccccc5)nc4c3)c3c(N)nccn32)C1 + Cc1cc([N+](=O)[O-])ccc1NS(=O)(=O)c1cc(Cl)ccc1Cl [FH535] (first compound 2 µM, partner dose 5 µM) | 88.6
Cn1cnc2c(F)c(Nc3ccc(Br)cc3Cl)c(C(=O)NOCCO)cc21 [selumetinib] + Oc1nc(-c2ccc(C(F)(F)F)cc2)nc2c1CSCC2 [XAV939] (first compound 0.075 µM, partner dose 10 µM) | 63
C[C@]1(O)C[C@@H](c2nc(-c3ccc4ccc(-c5ccccc5)nc4c3)c3c(N)nccn32)C1 + N#Cc1c(O)c2c(-c3ccc(-c4ccccc4O)cc3)csc2[nH]c1=O [A769662] (first compound 2 µM, partner dose 10 µM) | 86.3
C[C@]1(O)C[C@@H](c2nc(-c3ccc4ccc(-c5ccccc5)nc4c3)c3c(N)nccn32)C1 + CCN(CC)CCCCNc1ncc2cc(-c3cc(OC)cc(OC)c3)c(NC(=O)NC(C)(C)C)nc2n1 [PD173074] (first compound 2 µM, partner dose 0.5 µM) | 89.2
Cn1cnc2c(F)c(Nc3ccc(Br)cc3Cl)c(C(=O)NOCCO)cc21 [selumetinib] + c1cc(-c2cnn3cc(-c4ccc(OCCN5CCCCC5)cc4)cnc23)ccn1 [Dorsomorphin] (first compound 0.075 µM, partner dose 2 µM) | 75
COc1cc([C@@H]2c3cc4c(cc3[C@@H](O[C@@H]3O[C@@H]5CO[C@@H](C)O[C@H]5[C@H](O)[C@H]3O)[C@H]3COC(=O)[C@H]23)OCO4)cc(OC)c1O [etoposide] + COc1cc2ncnc(Nc3ccc(Oc4ccccc4)cc3)c2cc1OC [SrcI1] (first compound 0.1 µM, partner dose 10 µM) | 79.3
Cn1cnc2c(F)c(Nc3ccc(Br)cc3Cl)c(C(=O)NOCCO)cc21 [selumetinib] + O=C(O)C(=O)Nc1sc2c(c1C(=O)O)CCNC2 [TCS401] (first compound 0.075 µM, partner dose 8.33333 µM) | 66.2
Cn1cnc2c(F)c(Nc3ccc(Br)cc3Cl)c(C(=O)NOCCO)cc21 [selumetinib] + CCc1ccc(CCOc2ccc(CC3SC(=O)NC3=O)cc2)nc1 [pioglitazone] (first compound 0.075 µM, partner dose 10 µM) | 64.9
